Counter-ions that a name gives are not always drawn. Where a SMILES comes first, the peptide text is derived from it. [ ]: non-standard residue; d: D form. The star is where a group is joined. Nle = CCCC[C@H](N)C(=O)O; Cbz = O=C(OCc1ccccc1)*; CH2F = FC*
Tested on: nsp5 protease
Details: for % Reduction at 0.8 µM / % Reduction at 4 µM: reduction in nsp5 activity (rate of reaction), primary HTS; for % Reduction at 0.8 µM: compound 0.8 µM; for % Reduction at 4 µM: compound 4 µM

Compound | % Reduction at 0.8 µM [%] | % Reduction at 4 µM [%] | outcome in the primary screen (HTS buffer with reducing agent)
C=CCn1c(=O)c2c(nc(-c3ccc(S(=O)(=O)O)cc3)n2C)n(C)c1=O [1-Allyl-3,7-dimethyl-8-p-sulfophenylxanthine] | 0 | 37 | 
CC(C)=CCc1cc2c(cc1O)oc(=O)c1c3ccc(O)cc3oc21 [3,9-dihydroxy-2-(3-methyl-2-butenyl)-6H-[1]benzofuro[3,2-c]chromen-6-one] | 0 | 79 | 
COc1ccc(-c2ccc3cc(C(=O)O)ccc3c2)cc1C12CC3CC(CC(C3)C1)C2 [Adapalene] | 0 | 87 | 
COc1cc2nc(N(C)CCCNC(=O)C3CCCO3)nc(N)c2cc1OC (stereo not shown) [Alfuzosin] | 0 | 44 | 
O=C1O/C(=C/Br)CCC1c1cccc2ccccc12 (stereo not shown) [Bromoenol lactone] | 0 | 49 | 
Cc1ccccc1N=Nc1ccc(NC(=O)c2ccnn2C)c(C)c1 [CH-223191] | 0 | 79 | 
O=C(O)CCCCC(CCSCc1ccccc1)SCc1ccccc1 (stereo not shown) [CPI-613] | 0 | 54 | 
CCCC[C@@H](C=O)NC(=O)[C@H](CC(C)C)NC(=O)[C@H](CC(C)C)NC(C)=O [Calpain Inhibitor I, (2S)-2-(acetylamino)-N-[(1S)-1-({[(1S)-1-formylpentyl]amino}carbonyl)-3-methylbutyl]-4-methylpentanamide] (Ac-Leu-Leu-[Nle]-aldehyde) | 0 | 58 | 
C=C1C[C@@]2(O)O[C@@]3(C[C@H]2C(C)C)[C@@H](C)CC[C@@H]13 [Curcumol] | 0 | 31 | 
COc1cc2nc(N3CCN(C(=O)C4COc5ccccc5O4)CC3)nc(N)c2cc1OC.CS(=O)(=O)O (stereo not shown) [Doxazosin (mesylate)] | 0 | 60 | 
CC(C)(C#N)c1ccc(N2C(=O)OCc3cnc4ccc(-c5cnc6ccccc6c5)cc4c32)cc1 [ETP-46464] | 0 | 64 | 
O=c1c2ccccc2[se]n1-c1ccccc1 [Ebselen] |  |  | not identified as an hit
Br.CCCc1cc(-c2nc(-c3ccc(C)cc3)cs2)ccn1 [Fatostatin HBr] | 0 | 48 | 
Cn1c2ccccc2c2c3c(c4c5ccccc5n(CCC#N)c4c21)CNC3=O [Go6976] | 0 | 67 | 
CN1C2CCCC1CC(NC(=O)c1nn(C)c3ccccc13)C2 (stereo not shown) [Granisetron HCl] | 0 | 36 | 
CC(C)[C@H](N=C(NS(=O)(=O)c1ccc(Cl)cc1)N1C[C@H](c2ccccc2)C(c2ccc(Cl)cc2)=N1)C(N)=O [JD-5037] | 0 | 74 | 
CN1CCN(c2c(F)cc3c(=O)c(C(=O)O)cn4c3c2OCN4C)CC1 [Marbofloxacin] | 0 | 56 | 
Cn1cc(-c2ccc3ncc(Cc4ccc5ncccc5c4)n3n2)cn1 [NVP-BVU972] | 0 | 59 | 
COc1ccc(COc2cc3oc(=O)c4cc(C(C)O)ccc4c3cc2OC)cc1 (stereo not shown) [Palomid 529] | 0 | 43 | 
COc1cc2nc(N3CCN(C(=O)c4ccco4)CC3)nc(N)c2cc1OC [Prazosin hydrochloride] | 0 | 80 | 
Cc1ccc(S(=O)(=O)Cc2nc(-c3ccc(C(=O)NCc4cccnc4)cc3)oc2C)cc1 [STF-118804] | 0 | 55 | 
CCOc1ccc(Cc2cc([C@@H]3O[C@H](SC)[C@@H](O)[C@H](O)[C@H]3O)ccc2Cl)cc1 [Sotagliflozin (LX4211), Sotagliflozin] | 0 | 47 | 
COc1cc2c(cc1OC)CN(CCc1ccc(NC(=O)c3cc(OC)c(OC)cc3NC(=O)c3cnc4ccccc4c3)cc1)CC2 [Tariquidar] | 0 | 66 | 
COc1cc2ncc(-c3ccccc3)nc2cc1OC [Tyrphostin AG 1296] | 0 | 45 | 
COC(=O)CCC(NC(=O)C(CC(=O)OC)NC(=O)OCc1ccccc1)C(=O)NC(C(=O)NC(CC(=O)OC)C(=O)CF)C(C)C (stereo not shown) [Z-DEVD-FMK] | 53 | 100 | 
CCC(C)C(NC(=O)OCc1ccccc1)C(=O)NC(CCC(=O)OC)C(=O)NC(C(=O)NC(CC(=O)OC)C(=O)CF)C(C)O (stereo not shown) [Z-IETD-FMK] (Cbz-IE(OMe)TD(OMe)-CH2F; configuration not given here) | 50 | 100 | 
COC(=O)CC(NC(=O)C(C)NC(=O)C(NC(=O)OCc1ccccc1)C(C)C)C(=O)CF (stereo not drawn) [Z-VAD-FMK, Z-VAD(OMe)-FMK] (Cbz-Val-Ala-Asp(OMe)-CH2F; configuration not given here) | 43 | 100 | 
PDK1/Akt/Flt Dual Pathway Inhibitor | 0 | 64 | 

From article PMC8286836, “Identifying SARS-CoV-2 antiviral compounds by screening for small molecule inhibitors of Nsp5 main protease” (Biochemical Journal, 2021)
